# Experimental data: paper PMC5700166
# Only a part is listed here, and it is no random draw. The list includes weakly bound sequences.
# Key:
# GST-Co-NF-kB = target: T1, GST-Co-NF-kB (UniProt F1ARL5); assay: protein-binding microarray (PBM); conditions: PBM: ~300 nM protein, 6 mM HEPES pH 7.8, 80 mM KCl, 0.5 mM EDTA, 0.5 mM EGTA, 6% glycerol, 35 ng/ul poly-dIdC, 1% milk, 1 h, room temperature; high values mean tight binding; double strand, one strand shown
# T1 sequence: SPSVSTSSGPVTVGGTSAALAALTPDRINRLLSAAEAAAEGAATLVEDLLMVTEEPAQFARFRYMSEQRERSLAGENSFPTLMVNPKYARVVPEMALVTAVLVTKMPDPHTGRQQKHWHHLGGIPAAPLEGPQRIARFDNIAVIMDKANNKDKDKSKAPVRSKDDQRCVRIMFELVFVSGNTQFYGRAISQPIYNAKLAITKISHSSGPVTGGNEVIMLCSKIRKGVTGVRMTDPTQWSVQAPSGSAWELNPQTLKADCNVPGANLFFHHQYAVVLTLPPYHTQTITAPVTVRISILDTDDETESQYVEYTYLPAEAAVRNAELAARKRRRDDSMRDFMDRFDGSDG
# GST-Dm-Relish = target: T2, GST-Dm-Relish (UniProt Q94527); assay: protein-binding microarray (PBM); conditions: PBM: ~300 nM protein, 6 mM HEPES pH 7.8, 80 mM KCl, 0.5 mM EDTA, 0.5 mM EGTA, 6% glycerol, 35 ng/ul poly-dIdC, 1% milk, 1 h, room temperature; Ap Aiptasia and Nv Nematostella (sea anemones) / Co Capsaspora / Aq Amphimedon (sponge) / Dm Drosophila / Hu human; RHD is the Rel homology domain; high values mean tight binding; most listed sequences are background and not binding sites; double strand, one strand shown
# T2 sequence: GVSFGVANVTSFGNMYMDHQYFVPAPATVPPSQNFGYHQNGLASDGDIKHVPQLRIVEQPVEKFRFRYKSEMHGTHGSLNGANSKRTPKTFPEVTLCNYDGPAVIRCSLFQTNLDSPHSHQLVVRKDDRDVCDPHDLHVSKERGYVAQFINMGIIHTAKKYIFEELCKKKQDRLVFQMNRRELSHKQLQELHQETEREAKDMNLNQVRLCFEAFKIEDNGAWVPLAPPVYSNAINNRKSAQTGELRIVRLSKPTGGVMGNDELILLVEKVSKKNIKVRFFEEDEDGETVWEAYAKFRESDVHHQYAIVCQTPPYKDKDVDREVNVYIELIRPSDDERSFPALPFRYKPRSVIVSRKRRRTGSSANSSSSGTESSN
Sequence,binding signal (GST-Co-NF-kB) [z-score],binding signal (GST-Dm-Relish) [z-score]
CCGATTAACATCACGGGGGAAACTGATGTTAATCGGGTCTTGATTCGCTTGACGCTGCTG,12.2,3.91
CCGATTAACATCAGGCACTTCCCTGATGTTAATCGGGTCTTGATTCGCTTGACGCTGCTG,-0.0599,0.121
CCGATTAACATCAGGGACTTCACTGATGTTAATCGGGTCTTGATTCGCTTGACGCTGCTG,-0.354,7.9
CCGATTAACATCATCCCTCCCCATGATGTTAATCGGGTCTTGATTCGCTTGACGCTGCTG,3.09,0.966
CCGATTAACATCAATATTTCCCATGATGTTAATCGGGTCTTGATTCGCTTGACGCTGCTG,5.1,1.61
CCGATTAACATCAGGGAAACACATGATGTTAATCGGGTCTTGATTCGCTTGACGCTGCTG,3.05,6.06
CCGATTAACATCACATAATCCCCTGATGTTAATCGGGTCTTGATTCGCTTGACGCTGCTG,3.86,6.27
CCGATTAACATCAACGGTGGGAATGATGTTAATCGGGTCTTGATTCGCTTGACGCTGCTG,2.19,0.686
CCGATTAACATCAGGGGTAACACTGATGTTAATCGGGTCTTGATTCGCTTGACGCTGCTG,4.28,0.872
CCGATTAACATCAACGTGGGAAATGATGTTAATCGGGTCTTGATTCGCTTGACGCTGCTG,2.91,0.458
CCGATTAACATCAAGGGGGGGGATGATGTTAATCGGGTCTTGATTCGCTTGACGCTGCTG,7.64,5.31
CCGATTAACATCAAAAAATCACCTGATGTTAATCGGGTCTTGATTCGCTTGACGCTGCTG,1,8.12
CCGATTAACATCAGACGTGGGAATGATGTTAATCGGGTCTTGATTCGCTTGACGCTGCTG,2.5,0.928
CCGATTAACATCAGGAATTGCCCTGATGTTAATCGGGTCTTGATTCGCTTGACGCTGCTG,0.51,0.953
CCGATTAACATCACCTCTTTCCCTGATGTTAATCGGGTCTTGATTCGCTTGACGCTGCTG,3.61,0.514
CCGATTAACATCAAAATCCCCCGTGATGTTAATCGGGTCTTGATTCGCTTGACGCTGCTG,8.56,9.89
CCGATTAACATCAGTCCCTAAGCTGATGTTAATCGGGTCTTGATTCGCTTGACGCTGCTG,-0.173,0.154
CCGATTAACATCAGGGGATGAATTGATGTTAATCGGGTCTTGATTCGCTTGACGCTGCTG,4.99,2.75
CCGATTAACATCACGCAAATCCCTGATGTTAATCGGGTCTTGATTCGCTTGACGCTGCTG,0.775,1.24
CCGATTAACATCAGGGCAAACCCTGATGTTAATCGGGTCTTGATTCGCTTGACGCTGCTG,0.543,1.14
CCGATTAACATCAGTATTCCCCATGATGTTAATCGGGTCTTGATTCGCTTGACGCTGCTG,7.15,4.54
CCGATTAACATCATTGTCCCTTCTGATGTTAATCGGGTCTTGATTCGCTTGACGCTGCTG,0.55,0.202

Sequence,binding signal (GST-Co-NF-kB) [z-score],binding signal (GST-Dm-Relish) [z-score]
CCGATTAACATCAGGGAAATACATGATGTTAATCGGGTCTTGATTCGCTTGACGCTGCTG,4.08,8.18
CCGATTAACATCATAATTCCCCATGATGTTAATCGGGTCTTGATTCGCTTGACGCTGCTG,6.68,4.84
CCGATTAACATCAGGTAATTTTATGATGTTAATCGGGTCTTGATTCGCTTGACGCTGCTG,0.641,3.58
CCGATTAACATCAGGGGGGGATATGATGTTAATCGGGTCTTGATTCGCTTGACGCTGCTG,5.9,4.91
CCGATTAACATCACGGGATTTCGTGATGTTAATCGGGTCTTGATTCGCTTGACGCTGCTG,0.549,3.68
CCGATTAACATCAATTTACCCACTGATGTTAATCGGGTCTTGATTCGCTTGACGCTGCTG,2.34,0.809
CCGATTAACATCAAGGGAAATTCTGATGTTAATCGGGTCTTGATTCGCTTGACGCTGCTG,4.57,3.68
CCGATTAACATCAGCACTCCCCCTGATGTTAATCGGGTCTTGATTCGCTTGACGCTGCTG,3.89,2.23
CCGATTAACATCAAGTTTTCCCCTGATGTTAATCGGGTCTTGATTCGCTTGACGCTGCTG,10.3,6.09
CCGATTAACATCAGGGCATGCCCTGATGTTAATCGGGTCTTGATTCGCTTGACGCTGCTG,-0.315,0.452
CCGATTAACATCAGGGTATTTAATGATGTTAATCGGGTCTTGATTCGCTTGACGCTGCTG,–,3.25
CCGATTAACATCAGGATGCCCCCTGATGTTAATCGGGTCTTGATTCGCTTGACGCTGCTG,–,4.63
CCGATTAACATCAGCATGGGAAATGATGTTAATCGGGTCTTGATTCGCTTGACGCTGCTG,–,0.0696
CCGATTAACATCAAGGTGGGAATTGATGTTAATCGGGTCTTGATTCGCTTGACGCTGCTG,–,0.988
CCGATTAACATCAAGCATCCCCCTGATGTTAATCGGGTCTTGATTCGCTTGACGCTGCTG,–,3.89
CCGATTAACATCAGCTTCCCCCCTGATGTTAATCGGGTCTTGATTCGCTTGACGCTGCTG,–,4.2
CCGATTAACATCAGGGGACTTCATGATGTTAATCGGGTCTTGATTCGCTTGACGCTGCTG,–,6.09
CCGATTAACATCAGGGGGAAGCATGATGTTAATCGGGTCTTGATTCGCTTGACGCTGCTG,–,3.21
CCGATTAACATCACTATTCCCCCTGATGTTAATCGGGTCTTGATTCGCTTGACGCTGCTG,–,3.2
CCGATTAACATCAAATTTCCCGCTGATGTTAATCGGGTCTTGATTCGCTTGACGCTGCTG,–,2.88
CCGATTAACATCAGGATGTCCCCTGATGTTAATCGGGTCTTGATTCGCTTGACGCTGCTG,–,5.89
CCGATTAACATCAATAAAATCCCTGATGTTAATCGGGTCTTGATTCGCTTGACGCTGCTG,–,6.47
